# In all, about 310,000 compounds went through this assay and about 2,200 (0.71%) showed an effect of 50% or more. The effect is printed as a negative number. Some of the results follow.
# Target: human ether-à-go-go-related gene (hERG) potassium channel (human, UniProt Q12809)
# Test: primary screen, population patch clamp on CHO cells stably expressing hERG
# Sequence of human ether-à-go-go-related gene (hERG) potassium channel (Q12809 whole entry, looked up): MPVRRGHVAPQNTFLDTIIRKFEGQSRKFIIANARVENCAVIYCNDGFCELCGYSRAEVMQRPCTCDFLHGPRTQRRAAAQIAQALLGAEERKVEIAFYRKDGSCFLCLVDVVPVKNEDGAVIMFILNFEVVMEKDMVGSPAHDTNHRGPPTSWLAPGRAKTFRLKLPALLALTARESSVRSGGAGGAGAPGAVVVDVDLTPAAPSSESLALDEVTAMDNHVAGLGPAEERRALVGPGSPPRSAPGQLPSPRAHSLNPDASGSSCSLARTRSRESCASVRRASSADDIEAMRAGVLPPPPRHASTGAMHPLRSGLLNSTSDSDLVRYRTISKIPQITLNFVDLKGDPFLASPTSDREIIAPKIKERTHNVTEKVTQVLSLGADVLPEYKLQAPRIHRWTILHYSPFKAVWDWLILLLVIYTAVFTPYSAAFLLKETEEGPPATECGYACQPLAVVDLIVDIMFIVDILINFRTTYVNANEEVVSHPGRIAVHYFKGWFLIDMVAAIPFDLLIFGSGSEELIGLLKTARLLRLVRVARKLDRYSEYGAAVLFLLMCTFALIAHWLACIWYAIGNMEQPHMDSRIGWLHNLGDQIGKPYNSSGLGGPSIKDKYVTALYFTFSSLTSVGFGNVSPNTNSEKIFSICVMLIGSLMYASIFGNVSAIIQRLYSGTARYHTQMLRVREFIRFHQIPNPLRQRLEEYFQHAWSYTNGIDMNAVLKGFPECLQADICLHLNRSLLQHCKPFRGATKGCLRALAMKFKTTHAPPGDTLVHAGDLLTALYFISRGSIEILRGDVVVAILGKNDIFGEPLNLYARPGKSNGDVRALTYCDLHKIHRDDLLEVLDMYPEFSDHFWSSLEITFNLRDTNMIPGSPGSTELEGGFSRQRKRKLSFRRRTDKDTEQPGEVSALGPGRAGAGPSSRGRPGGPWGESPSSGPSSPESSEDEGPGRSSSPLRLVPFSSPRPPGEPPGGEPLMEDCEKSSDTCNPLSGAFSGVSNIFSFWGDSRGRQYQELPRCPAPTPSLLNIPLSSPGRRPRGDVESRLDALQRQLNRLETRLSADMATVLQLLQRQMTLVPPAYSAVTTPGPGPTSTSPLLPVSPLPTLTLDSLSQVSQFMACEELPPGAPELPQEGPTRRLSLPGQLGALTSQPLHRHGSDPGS
row,SMILES,"hERG current change (%, negative = inhibition) at 1uM"
1,COC(=O)c1ccc(NC(=O)COc2ccc([N+](=O)[O-])cc2)cc1,13.8%
2,COc1ccc(Cl)cc1NC(=O)CN1CCC(n2nnc3ccccc32)CC1,-8.77%
3,Cc1ccc(NC(=O)CNC(=O)c2ccc(C)o2)cc1,9.4%
4,CC(C)(C)SCCNC(=O)c1cccc([N+](=O)[O-])c1,15.5%
5,Cc1ccc(C2=CC(=O)CC(C)(C)C2)cc1,5.52%
6,O=C(CN1CCCCC1)Nc1cccc(-n2cnnn2)c1,8.34%
7,O=Cc1cccc(Oc2ncccn2)c1,9.51%
8,Nc1c(C(=O)NCCc2ccccc2)sc2nc(N3CCOCC3)c3c(c12)CCCC3,6.15%
9,O=C(Nc1ccn(Cc2ccccc2)n1)c1ccc2c(c1)OCO2,3.52%
10,Cc1ccccc1NS(=O)(=O)c1cccc2nsnc12,16%
11,O=C1c2ccccc2C(=O)N1CNc1ccccc1,25.5%
12,COc1ccc(N2CCN(C(CNS(C)(=O)=O)c3ccco3)CC2)cc1 (stereo not drawn),9.6%
13,COc1ccc(CNC(=O)Cn2cccc2C(=O)c2ccccc2C)cc1,18.5%
14,CC(=NCCc1ccccc1)C1=C(O)CSC1=O,1.53%
15,O/N=C/c1ccc(OCC(O)COc2ccc(/C=N/O)cc2)cc1,-18.6%
16,NC(=O)c1ccc(N=C2C(=O)Nc3ccc([N+](=O)[O-])cc32)cc1,13.3%
17,Cc1ccccc1CSCCNC(=O)Nc1ccccc1,13.1%
18,Clc1ccccc1Cn1nc(-c2ccccc2)nc1-c1ccccc1,7.67%
19,Cc1sc2ncnc(N[C@@H](Cc3ccccc3)C(=O)O)c2c1C,1.61%
20,COc1ccc(-n2cc(-c3ccc(OC)c(OC)c3)[nH]c2=S)cc1,13%
21,CC(=O)Nc1ccc(SCC(=O)O)cc1,5.4%
22,COc1ccc2c(C)nc(N/C(N)=N/S(=O)(=O)c3ccc(C)cc3)nc2c1,10.4%
23,Cc1cc(NC(=O)CSc2nc(-c3cccnc3)ccc2C#N)no1,10.7%
24,O=C(O)c1ccc(-c2noc(-c3ccc(F)cc3)n2)cc1,13.5%

row,SMILES,"hERG current change (%, negative = inhibition) at 1uM"
1,O=C(NN1C(=O)c2ccccc2C1=O)C1C2CCCCC21 (stereo not drawn),10.5%
2,COc1ccc(Cl)cc1NC(=O)c1ccc2c(SCC(=O)O)c3c(nc2c1)CCCC3,19.2%
3,CCCNC(=O)N1C2CCC1CC(O)(c1cccnc1)C2 (stereo not drawn),2.34%
4,COc1ccc(NS(=O)(=O)c2cc(NC(=O)c3ccc(=O)[nH]n3)ccc2N2CCOCC2)cc1,0.0942%
5,COc1ccccc1NC(=O)N1CCCC1C(=O)Nc1nnc(C(C)C)s1 (stereo not drawn),-1.75%
6,CCCCc1c(O)nc(SCC(=O)c2ccccc2)n(-c2ccccc2OC)c1=O,11.7%
7,O=C(NCC1CCCO1)C(=O)c1c[nH]c2ccccc12 (stereo not drawn),-6.28%
8,N=C1C(c2nc3ccccc3s2)=C(O)CN1NC(=O)c1ccccc1[N+](=O)[O-],17.8%
9,COC(=O)c1ccc(Cl)cc1N(Cc1c(F)cccc1Cl)S(C)(=O)=O,2.41%
10,CCOC(=O)c1sc(NS(=O)(=O)c2ccc(C)cc2)nc1C,0.546%
11,COCCn1c(Cc2ccccc2)nnc1SCC(=O)NC(C)C,0.736%
12,CC(c1ccco1)N(C(=O)c1ccccc1F)c1ccccn1 (stereo not drawn),2.74%
13,CS(=O)(=O)N(CC(=O)N1CCCCCC1)c1cc(Cl)ccc1Cl,18.7%
14,COc1ccc(C(=O)c2cnc[nH]2)cc1,10.8%
15,Cc1ccc(-c2ccc(=O)n(CC(=O)NCc3ccco3)n2)cc1,-0.208%
16,COc1ccc(C(=O)C2CCCN(Cc3nc4ccccc4nc3C)C2)cc1OC (stereo not drawn),-83.3%
17,O=C(Nc1ccccc1)C1=C(O)CC(c2ccco2)CC1=Nc1ccccc1 (stereo not drawn),17%
18,O=C(O)c1ccc(N/N=C/c2cc(Br)cs2)cc1,18.1%
19,Cc1nc(=S)n(-c2ccccc2)[nH]1,14.4%
20,Cc1cc(CNC(=O)[C@H](C)[C@@H]2C[C@@]2(C)[C@@H](NC(=O)OCc2ccccc2)c2ccccc2)nn1C,7.5%
21,CN(Cc1ccccc1)C1CC(=O)N(c2ccc(C(=O)O)cc2)C1=O (stereo not drawn),5.74%
22,CCOc1ccc(C2C(C(=O)c3cccs3)=C(O)C(=O)N2CCN2CCOCC2)cc1 (stereo not drawn),-1.11%
23,COc1cc2c(cc1OC)C(C)N(C(=O)C(NC(=O)c1ccccc1)C(C)C)CC2 (stereo not drawn),7.28%
24,Cc1cc(C)c(S(=O)(=O)N2CCCOC2CNC(=O)C(=O)NCc2cccnc2)c(C)c1 (stereo not drawn),11.6%

row,SMILES,"hERG current change (%, negative = inhibition) at 1uM"
1,COCCNC(=O)/C(C#N)=C/c1ccc(SC)cc1,9.79%
2,CN(c1ccccc1C(=O)Nc1ccc2c(c1)n(C)c(=O)n2C)S(C)(=O)=O,15.4%
3,CN(CCCNC(=O)CCC(=O)N1CCOc2ccccc21)Cc1ccccc1,0.0159%
4,O=c1c2ccccc2nc(-c2cccs2)n1-c1ccccc1,11.9%
5,O=C(O)c1sccc1Oc1ccc(F)cc1[N+](=O)[O-],-4.56%
6,CC(Oc1ccccc1)c1ccn[nH]1 (stereo not drawn),21.1%
7,C=CCc1cc(/C=C2/NC(=O)N(CC(=O)OC)C2=O)cc(OC)c1O,11.6%
8,Cc1occc1-c1nnc(SCC(=O)N2CCOCC2)n1Cc1ccco1,17.9%
9,Fc1ccccc1OCCCN1CCOCC1,8.04%
10,CCn1c(Cc2ccccc2)nnc1SCC(=O)Nc1ccccc1O,11.4%
11,CCOC(=O)Cc1c(C)nc(Cc2ccc(OC(C)C)cc2)[nH]c1=O,6.06%
12,COc1cc(CC(=O)N2CCC(n3nccc3NC(=O)C3CC3)CC2)cc(OC)c1OC,10.8%
13,O=c1cc(O)c2sc(Nc3ccc(F)cc3)nc2[nH]1,4.62%
14,O=C(O)c1ccc(CSc2nc(-c3ccccc3)cc(C(F)(F)F)n2)cc1,8.91%
15,Cc1cc(SCc2ccc(Cl)c(Cl)c2)nc(=O)[nH]1,8.49%
16,CCc1c(C)nc(N)nc1Cl,13.2%
17,Cc1ccc(S(=O)(=O)N2CCCCC2CCNC(=O)C(=O)NCc2ccccc2)cc1 (stereo not drawn),12.7%
18,CCCCOc1ccc(C(=O)N2CCN(c3ncccn3)CC2)cc1,3.25%
19,O=C(O)c1ccc2c(c1)SC1=NS(=O)(=O)CCN12,7.46%
20,O=c1[nH]c(-c2ccco2)nc2sc3c(c12)CCCC3,14.7%
21,COc1ccc(/C(O)=C2/C(=O)C(=O)N(CC3CCCO3)C2c2ccc(O)c(OC)c2)cc1 (stereo not drawn),13.2%
22,CC(C)NC(=O)c1onc(CSc2cccc(F)c2)c1C(=O)O,13.3%
23,Cc1nnc(SC(C)C(=O)Nc2ccc3c(c2)OCCO3)s1 (stereo not drawn),15.2%
24,COCCN(Cc1ccccc1)C(=O)c1cc(-c2ccc(OC)c(OC)c2)nc2ccccc12,6.54%

row,SMILES,"hERG current change (%, negative = inhibition) at 1uM"
1,Brc1cccc(CN2CCCCCC2)c1,13.2%
2,COCCCNCCCCOc1ccc(Br)cc1Cl.O=C(O)C(=O)O,-61.5%
3,Cc1ccc(NCc2nnc(SCC(=O)OC3CCCCC3)o2)c(C)c1,14.3%
4,CN(C)/C=C(/C(=O)c1ccc(Cl)cc1Cl)S(=O)(=O)c1ccccc1,10.6%
5,Cc1ccc(CCNS(=O)(=O)c2cnc[nH]2)cc1,4.11%
6,CC(C)c1ccc(O)c(CN2CCN(c3ccccc3)CC2)c1,10.3%
7,O=C1C2C3C=CC(C4CC34)C2C(=O)N1CCc1ccccc1 (stereo not drawn),6.26%
8,COc1cccc(NC(=O)C2CCN(C(=O)[C@@H]3Cc4ccccc4CN3C(=O)OC(C)(C)C)CC2)c1,19.4%
9,CC(=O)Nc1ccc(C(=O)NN2C(=O)c3ccccc3C2=O)cc1,8.27%
10,O=C(COC(=O)c1ccc(S(=O)(=O)N2CCOCC2)cc1)NC1CCCC1,0.799%
11,Nc1nc(CSc2nnnn2-c2ccccc2)nc(N2CCCc3ccccc32)n1,9.2%
12,Cc1cc(C(=O)Oc2ccccc2C(=O)O)c(C)o1,11%
13,O=C(C[n+]1ccccc1)N/N=C/c1c(F)cccc1Cl.[Cl-],8.73%
14,Cc1cc(C)c2nc(N3CCC(C(=O)N4CCN(C(=O)c5ccco5)CC4)CC3)sc2c1,-46.9%
15,CCOC(=O)c1ccc(Nc2cc(C)nc(-c3ccccc3O)n2)cc1,10.3%
16,CSCCC(NC(=O)c1ccco1)C(=O)NCc1ccc(F)cc1 (stereo not drawn),6.66%
17,COc1cc(OC)cc(C(=O)Nc2cc(C)on2)c1,18.2%
18,CC1CC2(CCCCC2)Nc2ccc3ccccc3c21.Cl (stereo not drawn),9.44%
19,COc1cc2cc(C(=O)N3CCc4ccccc4C3)[nH]c2cc1OC,7.7%
20,COC(=O)C1=C(c2cc3ccccc3o2)C[C@@H]2CC[C@H]1N2C,6.69%
21,CCOC(=O)C1=C(c2ccccc2)NC(N)=NC1c1ccc(OCc2ccc(C(=O)OC)cc2)cc1 (stereo not drawn),3.19%
